The source of these data is PMC4336329 (PLoS ONE, 2015).

Screen size: about 310,000 compounds; about 2,200 (0.71%) showed an effect of 50% or more. Effects have a minus sign here. This is one part of the list.

human ether-à-go-go-related gene (hERG) potassium channel, sequence (Q12809 whole entry, looked up): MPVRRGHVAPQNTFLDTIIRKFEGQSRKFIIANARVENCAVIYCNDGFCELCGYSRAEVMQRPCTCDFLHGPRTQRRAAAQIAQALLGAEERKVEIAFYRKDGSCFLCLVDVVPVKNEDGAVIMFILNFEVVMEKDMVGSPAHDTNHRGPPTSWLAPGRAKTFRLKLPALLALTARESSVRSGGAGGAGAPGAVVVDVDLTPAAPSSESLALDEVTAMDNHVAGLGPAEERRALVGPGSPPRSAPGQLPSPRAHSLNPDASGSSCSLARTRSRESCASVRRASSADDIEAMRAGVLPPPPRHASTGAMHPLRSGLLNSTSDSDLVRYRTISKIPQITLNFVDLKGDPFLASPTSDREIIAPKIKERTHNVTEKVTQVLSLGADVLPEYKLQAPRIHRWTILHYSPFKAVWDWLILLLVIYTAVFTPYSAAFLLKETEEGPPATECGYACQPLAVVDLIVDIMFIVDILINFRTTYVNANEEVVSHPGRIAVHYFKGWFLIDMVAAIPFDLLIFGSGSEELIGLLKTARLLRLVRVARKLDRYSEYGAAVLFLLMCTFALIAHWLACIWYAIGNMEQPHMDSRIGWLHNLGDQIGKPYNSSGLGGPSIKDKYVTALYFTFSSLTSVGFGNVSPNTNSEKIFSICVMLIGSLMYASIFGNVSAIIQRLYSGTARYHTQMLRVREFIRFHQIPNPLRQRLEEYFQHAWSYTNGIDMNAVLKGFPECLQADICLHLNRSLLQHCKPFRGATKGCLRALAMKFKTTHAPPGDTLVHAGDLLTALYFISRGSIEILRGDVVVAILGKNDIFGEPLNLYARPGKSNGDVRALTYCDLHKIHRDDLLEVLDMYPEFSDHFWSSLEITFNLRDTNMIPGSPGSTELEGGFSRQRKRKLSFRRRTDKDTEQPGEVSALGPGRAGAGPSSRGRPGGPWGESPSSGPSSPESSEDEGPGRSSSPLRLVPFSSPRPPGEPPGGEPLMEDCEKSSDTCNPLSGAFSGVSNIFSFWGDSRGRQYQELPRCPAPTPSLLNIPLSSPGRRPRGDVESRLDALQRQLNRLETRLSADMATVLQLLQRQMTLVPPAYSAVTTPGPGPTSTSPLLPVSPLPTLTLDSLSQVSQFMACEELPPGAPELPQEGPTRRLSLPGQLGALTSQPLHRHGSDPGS

This test has as its target human ether-à-go-go-related gene (hERG) potassium channel (human, UniProt Q12809). Nature of the test: primary screen, population patch clamp on CHO cells stably expressing hERG.
Regarding `COc1ccc(NC2CCCN(C(=O)CN3CCOC3=O)C2)cc1OC` (centres unmarked), the “hERG current change (%, negative = inhibition) at 1uM” value amounted to 9.15%. The result for `COc1ccc(-c2oc3ncnc(NCCCO)c3c2-c2ccc(OC)cc2)cc1` reads 9.83%. The result for `Cn1cc(C(=O)N2CCCCC2)c(=O)c2cc(S(=O)(=O)N3CCCC3)ccc21` reads 15.6%; that for `CCCN1CCN(C(=O)CN2C(=O)COc3ccc(S(=O)(=O)N(CC)CC)cc32)CC1`, 16.2%. The figure for `Cc1nn(C)c(C)c1S(=O)(=O)NC1CCCc2ccccc21` (centres unmarked) is 4.33%; for `Cc1ccc(C(=O)C2(C)N(O)C(C)C(c3cccs3)=[N+]2[O-])cc1` (centres unmarked) it is 8.7%. `CC(Sc1nnc(N)s1)C(=O)Nc1nccs1` (centres unmarked): the “hERG current change (%, negative = inhibition) at 1uM” value is 12.7%.

In the case of `COc1ccc(C(=O)C2CCCN(Cc3ccc(C)s3)C2)c(OC)c1` (centres unmarked), the “hERG current change (%, negative = inhibition) at 1uM” value is -2.87%. Regarding `c1coc(-c2nc(-c3ccco3)c(-c3ccco3)nc2-c2ccco2)c1`, the “hERG current change (%, negative = inhibition) at 1uM” value worked out at 4.93%. The result for `O=C(O)C1CC=CCC1C(=O)NCc1ccccc1` (centres unmarked) reads -2%; that for `CCOC(=O)CCC(NC(=O)c1ccc(NCN2C(=O)c3ccccc3C2=O)cc1)C(=O)OCC` (centres unmarked), 9.84%; that for `O=C1OCCC1Sc1nc2cc(Cl)ccc2s1` (centres unmarked), 2.87%.

For the compound `CC(C)Cc1nnc(NC(=O)c2cc(-c3ccccc3)nc3ccccc23)s1`, the “hERG current change (%, negative = inhibition) at 1uM” value worked out at 14.2%.

With `Cc1ccc(C(=O)OCn2nnc3ccccc3c2=O)cc1[N+](=O)[O-]`, the “hERG current change (%, negative = inhibition) at 1uM” value is on record as 9.93%. The figure for `COc1cc(C(=O)Nc2ccc(S(=O)(=O)N3CCc4ccccc43)cc2)cc(OC)c1OC` is 9.53%; for `O=C(c1ccc(Cl)c(S(=O)(=O)Nc2ccccc2C(=O)N2CCc3ccccc3C2)c1)N1CCc2ccccc2C1` it is 14.7%.

On to `Cc1ccc(Oc2nccc(-c3ccc(Cl)cc3)n2)cc1`, for which the “hERG current change (%, negative = inhibition) at 1uM” value is given as 17.4%.

Take `c1ccc2ncc(-n3cnnn3)cc2c1`: the “hERG current change (%, negative = inhibition) at 1uM” value came to 12.6%. As for `O=C(N/N=C/c1ccc(O)cc1)c1nc(-c2ccccc2)n(-c2ccccc2)n1`, the “hERG current change (%, negative = inhibition) at 1uM” value is 0.583%. The result for `CCN(C(=O)COC(=O)c1cc([N+](=O)[O-])ccc1N1CCOCC1)c1ccccc1` reads -7.18%; that for `CN(C)C(=O)Oc1ccc2c(c1)O/C(=C\c1cccc([N+](=O)[O-])c1)C2=O`, 12.3%; that for `COC(=O)COc1ccc(=O)n(-c2ccccc2)n1`, 6.13%. The result for `COc1ccc(NC(=O)Cn2c(=O)sc3ccccc32)cc1` reads 3.38%.

Regarding `Cc1cc(C)c(CSc2ncnc3nc[nH]c23)c(C)c1`, the “hERG current change (%, negative = inhibition) at 1uM” value came out at 1.08%. The figure for `O=C1[N-]C(=O)C(c2ccccc2)(c2ccccc2)N1.[Na+]` is 11.6%; for `O=C(c1cccs1)c1coc2ccc(O)c(CN3CCOCC3)c12` it is -9.55%; for `CCOC(=O)C1(Cc2cccc(OC)c2)CCN(CC(O)CO)CC1` (centres unmarked) it is 8.94%. The result for `CCC(=O)Oc1ccc2c(c1)OC1(OC(C)=O)OC(C)CC1=C2C` (centres unmarked) reads 8.94%; that for `CCc1c(O)nc(SCC(=O)Nc2nc3ccccc3s2)n(-c2ccc(C)cc2)c1=O`, 9.57%. As to `COc1cccc(NC(=O)COc2nc3ccccc3nc2C)c1`, the “hERG current change (%, negative = inhibition) at 1uM” value was 10.2%. The figure for `COc1cc(/C=C2/C(=O)N(c3cccc(Br)c3)N=C2C)cc(OC)c1O` is 15.3%. The figure for `CC1CCCN(CCOc2cccc(Oc3ccccc3)c2)C1.O=C(O)C(=O)O` (centres unmarked) is 7.11%. The result for `Cc1ccc(C(=O)NC(=S)N2CCCC2)cc1` reads 13.4%.

`CCCCn1nnc(NC(=O)c2ccc([N+](=O)[O-])cc2Cl)n1`: the “hERG current change (%, negative = inhibition) at 1uM” value is reported as -2.81%.

As for `CO/N=C/c1ccc(Oc2ccc([N+](=O)[O-])cc2[N+](=O)[O-])c(OC)c1`, the “hERG current change (%, negative = inhibition) at 1uM” value stood at 11.5%. For `O=C(CCNS(=O)(=O)c1ccccc1)N1CCOCC1`, the “hERG current change (%, negative = inhibition) at 1uM” value turned out to be 16.5%.

In the case of `CCOc1ccc(S(=O)(=O)N2CCC(C(=O)OC(C)C(=O)N(C)C3CCCCC3)CC2)cc1` (centres unmarked), the “hERG current change (%, negative = inhibition) at 1uM” value came to 0.0103%. In the case of `N#Cc1nc(-c2ccccc2F)oc1NCCc1ccccn1`, the “hERG current change (%, negative = inhibition) at 1uM” value is recorded as 1.93%. The figure for `O=C(Oc1ccc2c(c1)OCC2=O)c1ccc(Cl)cc1` is 2.37%; for `CS(=O)(=O)N1CCCC(C(=O)Nc2ccccc2)C1` (centres unmarked) it is 15.9%; for `COC(=O)CN=Cc1c(C)[nH]n(-c2ccccc2)c1=O` it is 1.8%. The figure for `O=S(=O)(c1ccc(F)cc1)N1CCN(C(=S)NCc2ccccc2)CC1` is 12.3%; for `Cc1cccc(C(=O)c2ccccc2C(=O)O)c1O` it is 17.9%; for `O=C(CCN1C(=O)c2cccc3cccc(c23)C1=O)N1CCOCC1` it is 10%.
